Reference: PMC11967820, “Deep Learning Combined with Quantitative Structure‒Activity Relationship Accelerates De Novo Design of Antifungal Peptides” (Advanced Science, 2025)
Values after ≈ are worked out from the molar mass of the structure shown. Like-named read-outs stand apart in the source and are kept apart here.

Columns and labels:
[1] = test system: C. albicans; format: cell-based, Candida albicans; settings: for MICs against the four tested pathogenic fungi: C. albicans, C. tropicalis, C. parapsilosis and C. neoformans; for MIC100 C. albicans: Table 3, two-fold dilution in PBS 20 mM pH 6.0, 1 × 10^6 CFU mL^−1, 20 h at 30 °C, MTT staining, mean ± SD, n = 3; for MIC100 C. albicans / MIC C.albicans: microdilution, 96-well plates; for MIC C.albicans: Table S5, concentration of the drug in ungrown fungus wells
Text: (§1) Each experiment was replicated three times.

[2] = test system: C. neoformans; settings: Table 3; microdilution, 96-well plates, PBS 20 mM pH 6.0, 1 × 10^6 CFU mL^−1, 20 h at 30 °C, MTT staining; mean ± SD, n = 3
[3] = test system: C. parapsilosis; test: Minimal inhibitory concentration (MIC), microdilution method; format: cell-based; settings: Table 3, 96-well plates, PBS 20 mM pH 6.0, 1 × 10^6 CFU mL^−1, 20 h at 30 °C, MTT staining, mean ± SD, n = 3
Text: as §1

[4] = test system: C. tropicalis; test: as above; format: cell-based, Candida tropicalis; settings: Table 3, 96-well plates, PBS 20 mM pH 6.0, 1 × 10^6 CFU mL^−1, 20 h at 30 °C, MTT staining, mean ± SD, n = 3
Text: as §1

[5] = test system: fluconazole‐resistant C. albicans; settings: at 1 × MIC; 28 °C, 12 h, absorbance 540 nm
[6] = test system: C. albicans; settings: 1 × MIC in SD broth, 28 °C, 3, 6 and 9 h
[7] = test system: C. albicans; settings: for splenic index / thymic index: n = 3
Experimental: The systemic C. albicans infection mouse model was established following the reported reference.^[ [22] ^] Cyclophosphamide (150 mg kg^−1 d^−1) was first injected intraperitoneally for 3 days to disrupt the immunity of female Kunming mice (Experimental Animal Center of Zhengzhou University, SCXK Yu 2021–0009). […] The injections were given once every 24 h during the first week and once every 48 h during the second week. Survival rates and body weights of the mice in each group were recorded during treatment. At 0, 7, and 14 d of treatment, duplicate samples (n = 3) of the spleen and thymus were collected from each group to determine the immune organ index.^[ [54] ^] The ratio of organ weight to body weight was adopted to describe the immune organ index. At 14 d of treatment, liver, lung, kidney, and spleen tissues were collected from each group of mice and immersed in 4% paraformaldehyde fixative. Subsequently, the tissue samples were embedded in paraffin, followed by sectioned and stained with hematoxylin‐eosin (H&E). Finally, optical microscopy was used to observe the pathological changes in the organ tissues of the mice.

[8] = Day 7, 0.4 mg kg^−1 intraperitoneally
[9] = Day 7, 0.8 mg kg^−1 intraperitoneally

Compound | MICs against the four tested pathogenic fungi [1] [µg/mL] | MIC100 C. albicans [1] [µg/mL] | MIC100 C. neoformans [2] [µg/mL] | MIC100 C. parapsilosis [3] [µg/mL] | MIC100 C. tropicalis [4] [µg/mL] | inhibition of growth of fluconazole‐resistant C. albicans [5] | MIC C.albicans [1] [µg/mL] | morphological and ultrastructural changes of C. albicans cells (SEM, TEM) [6] | average increased weight after 14 days of treatment ([7]; 0.4 mg kg^−1 intraperitoneally, n = 10) [g] | survival rate ([7]; 0.8 mg kg^−1 AFP‐13 intraperitoneally, 14 days, n = 10) [%] | average increased weight after 14 days of treatment ([7]; 0.8 mg kg^−1 intraperitoneally, n = 10) [g] | pathological changes of liver, lung, kidney and spleen (H&E sections) ([7]; 0.4 and 0.8 mg kg^−1, 14th day of treatment) | splenic index [7, 8] [mg/g] | thymic index [7, 8] [mg/g] | splenic index [7, 9] [mg/g] | thymic index [7, 9] [mg/g] | thymic index ([7]; Day 14, 0.4 mg kg^−1 intraperitoneally) [mg/g] | thymic index ([7]; Day 14, 0.8 mg kg^−1 intraperitoneally) [mg/g]
CC[C@H](C)[C@H](NC(=O)[C@H](CC(C)C)NC(=O)[C@@H](NC(=O)[C@@H](NC(=O)[C@H](CCCNC(=N)N)NC(=O)[C@H](Cc1c[nH]c2ccccc12)NC(=O)[C@H](CC(C)C)NC(=O)[C@@H](N)CCCNC(=N)N)[C@@H](C)CC)C(C)C)C(=O)N[C@@H](CCCNC(=N)N)C(=O)N[C@@H](CCCCN)C(=O)N[C@@H](C)C(=O)N[C@@H](CCCNC(=N)N)C(N)=O [AFP‐11] | < 10 | 7.48 ± 0.32 (≈ 4.74 µM) | 2.92 ± 0.37 (≈ 1.85 µM) | 5.80 ± 0.88 (≈ 3.67 µM) | 2.35 ± 0.27 (≈ 1.49 µM) |  |  |  |  |  |  |  |  |  |  |  |  | 
CC[C@H](C)[C@H](NC(=O)[C@H](CC(C)C)NC(=O)[C@@H](NC(=O)[C@@H](NC(=O)[C@H](CCCNC(=N)N)NC(=O)[C@H](Cc1c[nH]c2ccccc12)NC(=O)[C@H](CC(C)C)NC(=O)[C@@H](N)CCCNC(=N)N)[C@@H](C)CC)C(C)C)C(=O)N[C@@H](CCCNC(=N)N)C(=O)N[C@@H](CCCNC(=N)N)C(=O)N[C@@H](C)C(=O)N[C@@H](CCCCN)C(N)=O [AFP‐10] | < 10 | 3.51 ± 0.09 (≈ 2.22 µM) | 3.80 ± 0.04 (≈ 2.41 µM) | 2.61 ± 0.33 (≈ 1.65 µM) | 2.32 ± 0.12 (≈ 1.47 µM) | more than 99% |  |  |  |  |  |  |  |  |  |  |  | 
CC[C@H](C)[C@H](NC(=O)[C@H](CCCNC(=N)N)NC(=O)[C@H](Cc1c[nH]c2ccccc12)NC(=O)[C@H](CCCNC(=N)N)NC(=O)[C@@H](N)C(C)C)C(=O)N[C@@H](CCCNC(=N)N)C(=O)N[C@@H](CC(C)C)C(=O)N[C@H](C(=O)N[C@@H](CCCNC(=N)N)C(=O)N[C@@H](CCCCN)C(=O)N[C@@H](CC(C)C)C(=O)N[C@@H](C)C(N)=O)[C@@H](C)CC [AFP‐13] | < 10 | 6.26 ± 0.34 (≈ 3.96 µM) | 1.89 ± 0.04 (≈ 1.2 µM) | 9.32 ± 0.28 (≈ 5.9 µM) | 2.29 ± 0.21 (≈ 1.45 µM) | more than 99% | 7.81 (≈ 4.95 µM) | disrupting the cell wall and membrane of fungi in a time‐dependent manner | 7.58 | 90 | 8.00 | effectively reduce the pathological damage to organs | 10.89 | 2.85 | 11.51 | 2.96 | 5.66 | 5.11
CC[C@H](C)[C@H](NC(=O)[C@H](CCCNC(=N)N)NC(=O)[C@H](Cc1c[nH]c2ccccc12)NC(=O)[C@H](CC(C)C)NC(=O)[C@@H](N)CCCNC(=N)N)C(=O)N[C@H](C(=O)N[C@H](C(=O)N[C@H](C(=O)N[C@@H](CCCNC(=N)N)C(=O)N[C@@H](CCCNC(=N)N)C(=O)N[C@@H](C)C(=O)N[C@@H](CCCNC(=N)N)C(N)=O)[C@@H](C)CC)C(C)C)C(C)C [AFP‐8] | < 10 | 7.67 ± 0.10 (≈ 4.81 µM) | 3.77 ± 0.07 (≈ 2.37 µM) | 2.86 ± 0.41 (≈ 1.8 µM) | 3.62 ± 0.14 (≈ 2.27 µM) |  | 7.81 (≈ 4.9 µM) |  |  |  |  |  |  |  |  |  |  | 
